# Source: PubChem BioAssay AID1159614 (National Center for Advancing Translational Sciences (NCATS), 2016)
# In all, about 45,000 compounds went through this assay and about 65 (0.1%) were called active. Calls come from the whole dose curve; as a rule, active = well fitted activation curve with a large enough effect; inconclusive = small, poorly fitted or top-dose-only effect; inactive = no such curve, though single readings can be large or run the other way. The list shows a part of the results.
# Target: Galactocerebrosidase (Homo sapiens) (UniProt P54803)
# UniProt P54803, sequence (P54803 whole entry, looked up): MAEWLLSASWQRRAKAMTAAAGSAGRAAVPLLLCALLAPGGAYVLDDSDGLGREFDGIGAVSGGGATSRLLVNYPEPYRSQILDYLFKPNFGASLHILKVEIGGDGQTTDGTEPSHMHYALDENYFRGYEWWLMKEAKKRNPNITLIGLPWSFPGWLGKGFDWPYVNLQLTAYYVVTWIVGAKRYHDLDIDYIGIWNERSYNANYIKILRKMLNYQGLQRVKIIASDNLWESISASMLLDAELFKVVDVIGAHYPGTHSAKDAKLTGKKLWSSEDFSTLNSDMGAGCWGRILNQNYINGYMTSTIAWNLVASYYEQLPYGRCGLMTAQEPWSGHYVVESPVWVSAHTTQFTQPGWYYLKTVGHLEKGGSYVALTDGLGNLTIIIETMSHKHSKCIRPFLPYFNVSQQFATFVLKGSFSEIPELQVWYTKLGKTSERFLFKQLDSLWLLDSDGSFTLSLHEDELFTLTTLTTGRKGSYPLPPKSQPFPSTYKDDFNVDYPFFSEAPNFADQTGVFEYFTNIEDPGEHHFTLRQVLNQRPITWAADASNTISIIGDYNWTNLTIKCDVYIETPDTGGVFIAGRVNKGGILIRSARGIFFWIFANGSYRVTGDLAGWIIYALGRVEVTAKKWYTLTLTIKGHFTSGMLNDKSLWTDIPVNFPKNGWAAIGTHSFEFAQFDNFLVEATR
# Test: A Novel Cell-Based Assay to Identify Small Molecules for B -Galactocerebrosidase; note: nearly all actives have a fitted effect of over 65% in size; for activation: 0% is about no effect
# Settings: 145M-Twi-hGALC-G270D cells (Twitcher mouse brain line with human GALC G270D), HMU-beta-Gal fluorescence, 48 h; series mostly up to 57.5 µM; activation: at the top concentration
# How it was run: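 Brain-derived Twitcher mouse 145M-Twi cells stably expressing human GALC-G270D or wild-type GALC, treated live, then residual GALC activity read by fluorescence of HMU-b-Gal substrate (0.1 mM final) in citrate-phosphate buffer pH 5.2 with sodium taurocholate. Signal increase indicates enhancement.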
# Potency is the fitted concentration of half-maximal effect.
Compound,activation,Potency
O=C(Cn1cc(S(=O)(=O)Cc2ccccc2F)c2ccccc21)Nc1ccc(F)c(Cl)c1,inactive: -41.1%,–
COc1cc(C(=O)Nc2cc(C)c(O)c(-c3nc4ccccc4s3)c2)cc(OC)c1OC,inactive: -24.2%,–
O=C(NCCO)c1ccc(-c2nnc(Nc3ccc(OC(F)(F)Cl)cc3)c3ccccc23)cc1,inactive: -20.3%,–
CCCN(CCC)C(=O)C1CCN(c2cc(C)nc3c(-c4ccc(Cl)cc4)c(C)nn23)CC1,inactive: -10.2%,–
Cn1c(NCCCO)nc2c1c(=O)n(Cc1cccc(F)c1)c(=O)n2C,inactive: -23.9%,–
COc1ccc(C(=O)Nc2ccc(-c3nc4ccccc4s3)c(Cl)c2)cc1Cl,inactive: 2.62%,–
Cc1ccc(-c2c(C(=O)Nc3ccccc3F)oc(=O)c3ccccc23)cc1,inactive: -10%,–
CCCc1nn2c(=O)cc(COC(=O)c3ccc4c(c3)OCO4)nc2s1,inactive: -1.33%,–
Cc1cc2nc(-c3ccc(OCc4ccccc4F)cc3)cc(C(F)(F)F)n2n1,inactive: -7.9%,–
Cc1ccc(C)c(NC(=O)c2oc(=O)c3ccccc3c2-c2ccccc2)c1,inactive: -9.66%,–
Cc1ccc(C)c(Cn2c(SCC(=O)NCc3ccccc3)nc3ccccc32)c1,inactive: -12%,–
Cc1ccc(C)c(N2CCN(C(=O)Cn3cnc4nc5c(cc4c3=O)CCCC5)CC2)c1,inactive: -21.9%,–
CCOC(=O)c1cccc(NC(=O)C2=C(C)C(=O)OC23CCCCC3)c1,inactive: -14.8%,–
Cn1c(NCCN)nc2c1c(=O)n(Cc1ccccc1)c(=O)n2C,inactive: -18.5%,–
COc1ccc(N2CCN(C(=O)C3CCCN(S(=O)(=O)c4ccc5c(c4)oc(=O)n5C)C3)CC2)cc1 (stereo not drawn),inactive: -9.39%,–
Cc1cccc(N2CCN(C(=O)Cc3c(C(=O)O)c(C)cn3C)CC2C)c1 (stereo not drawn),inactive: 0.0163%,–
CN(Cc1ccccc1)C(=O)c1ccc(CSc2nc3cccnc3n2Cc2ccccc2)cc1,inactive: -21.3%,–
COc1ccc(NC(=O)Cn2c(=O)oc3cc(S(=O)(=O)N4CCCC4)ccc32)cc1OC,inactive: -24.2%,–
COc1ccc(CCNC(=O)c2ccc3nc(CCc4ccccc4)oc3c2)cc1OC,inactive: -6.94%,–
Cc1cccc(CSc2nc3ccncc3n2CC(=O)N(C)C2CCCCC2)c1,inactive: -18.8%,–
CCCS(=O)(=O)Nc1cccc(-c2cn3ccsc3n2)c1,inactive: -9.12%,–

Compound,activation,Potency
COc1ccc(NC(=O)Cn2cnc3c(nc4n3CCCCC4)c2=O)cc1Cl,inactive: -17%,–
COc1ccc(OC)c(NC(=O)c2nnn(CC(=O)Nc3ccc(C(C)C)cc3)c2N)c1,inactive: -21.2%,–
CCCCc1cc2ccccc2c(OCCN(C)C)n1,inactive: -3.42%,–
CCc1cccc(NC(=O)CCn2nc(C)cc2C)c1,inactive: -11.3%,–
COc1ccccc1CCNC(=O)C1(c2cccs2)CCOCC1,inactive: -5.72%,–
COc1ccc(C2CC(=O)Nc3c2c(C)nn3-c2nc(C)cc(C)n2)c(OC)c1OC (stereo not drawn),inactive: -7.31%,–
COC(=O)c1c(NC(=O)COc2ccc(C(C)C)cc2)sc2c1CCCC2,inactive: -14.6%,–
CCC(=O)NCCc1sc2nc(-c3ccc(OC)cc3)nn2c1C,inactive: -9.56%,–
CCC1CCCCN1CCCNC(=O)c1ccc2c(c1)N(Cc1cccc(Cl)c1)C(=O)c1ccccc1S2(=O)=O (stereo not drawn),inactive: -5.11%,–
CC(=O)c1ccc(NC(=O)c2sc(-n3nc(C)c(Cc4ccc5c(c4)OCO5)c3C)nc2C)cc1,inactive: -7.25%,–
COc1cccc(CNCc2c(C(=O)O)n(Cc3ccc(C)cc3)c3cc(C)ccc23)c1OC,inactive: -0.257%,–
O=C(Nc1ccc2oc(-c3ccc(Br)cc3)nc2c1)c1cc2ccccc2o1,inactive: -11.8%,–
O=c1oc2c(CN3CCOCC3)c(O)ccc2cc1-c1ccccc1,–,active: 25.1 µM
COc1ccc(N2CCN(C(=O)c3noc4c3CCCCC4)CC2)cc1,inactive: -2.11%,–
Cc1ccc(N2C(=O)CSC23C(=O)N(CC(=O)NCCc2ccccc2)c2ccccc23)cc1 (stereo not drawn),inactive: -3.65%,–
CCC1CN(C(=O)N2CCC(C(=O)NCc3cccs3)CC2)c2ccccc2O1 (stereo not drawn),inactive: -16.4%,–
Cc1ccc(NC(=O)c2ccc(-c3ccccc3)s2)cc1,inactive: -14.7%,–
COc1ccc(CCNC(=O)c2cnc3sc(N4CCCCCC4)nn3c2=O)cc1,inactive: -12%,–
Cc1ccc(C(=O)OCc2cc(=O)n3nc(CC(C)C)sc3n2)cc1,inactive: -0.782%,–
CC(C(=O)O)c1ccc2c(c1)[nH]c1ccc(Cl)cc12 (stereo not drawn),inactive: -21.8%,–
CCOC(=O)c1ccccc1NC(=O)c1sc2nc(-c3ccc(F)cc3)cn2c1C,inactive: -13.4%,–

Compound,activation,Potency
O=C(NCCc1nc2ccccc2n1Cc1ccc(Cl)cc1)c1ccccc1,inactive: -2.71%,–
COc1ccc(-c2nc3ccccc3o2)cc1NC(=O)c1cc(Br)ccc1OC,inactive: -5.9%,–
COc1ccc(C)cc1NC(=O)NCCn1nnc2cc(S(=O)(=O)N(C)C)ccc21,inactive: -7.21%,–
Cc1nnc(NC(=O)CSc2nc3c([nH]c4ccccc43)c(=O)n2-c2cccc(Cl)c2)s1,inactive: -19.4%,–
Cc1cc(C)cc(NCc2nnc3n2CCCCC3)c1,inactive: -12.8%,–
CCCN(C(=O)c1ccc2c(=O)n3c(nc2c1)CCCCC3)c1cccc(Cl)c1,inactive: -1.26%,–
Cc1ccc2occ(CC(=O)Nc3c(C)cccc3C)c2c1,inactive: -27.1%,–
O=C(CCNS(=O)(=O)c1ccc2c(c1)CCN2C(=O)C1CC1)Nc1ccc(Cl)cc1,inactive: -32.5%,–
CC(=O)N1CCc2cc(Br)cc(S(=O)(=O)CCC(=O)NCc3ccc(F)cc3)c21,inactive: -9.9%,–
COc1ccccc1CN1CCC(CNC(=O)c2cnn(-c3cccc(Cl)c3)c2C2CCN(C(=O)OC(C)(C)C)CC2)CC1,inactive: -20.3%,–
COc1ccc(OCC(=O)N2CCN(C(=O)c3ccc(OC)c(OC)c3)CC2)cc1,inactive: -15.8%,–
COc1cn(CC(=O)Nc2ccc(C)cc2)c(CN2CCCCC2)cc1=O,inactive: -6.82%,–
Cc1cccc(C)c1NC(=O)CCSCCc1ccccn1,inactive: -8.02%,–
COc1ccc(NC(=O)CN2C(=O)COc3ccc(S(=O)(=O)NC4CCCC4)cc32)cc1OC,inactive: 3.83%,–
Cc1cc2c(cc1S(=O)(=O)NCc1ccc(F)cc1)OCC(=O)N2,inactive: -11.3%,–
CCC(C(=O)NC(=O)NC(C)=O)c1ccccc1 (stereo not drawn),inactive: -11.7%,–
CCOC(=O)c1cc2c(=O)n3ccccc3nc2n(CCOC)c1=NC(=O)c1c(-c2c(F)cccc2Cl)noc1C,inactive: 17.1%,–
CSc1ccc(CCNC(=O)Cn2ncc3c([nH]c4ccccc43)c2=O)cc1,inactive: 4.7%,–
O=C(c1ccccc1)n1nc(-c2ccc(Cl)cc2)nc1NCc1ccco1,inactive: 10.9%,–
CCc1cccc(NC(=O)Cn2nc(C)c3sc4ccccc4c3c2=O)c1,inactive: -11.1%,–
Cc1ccc(C)c(CN2C(=O)CSc3ccc(C(=O)NCc4ccccc4)cc32)c1,inactive: -10.3%,–
